Reference: PubChem BioAssay AID1030 (National Center for Advancing Translational Sciences (NCATS), 2008)
Hit rate of the full screen: of about 220,000 compounds, about 16,000 (7.3%) were called active. Inconclusive means that the source gave no clear call. Such entries were picked first, then a sample of the others. Calls come from the whole dose curve; as a rule, active = well fitted inhibition curve with a large enough effect (not every such curve was filed as active); inconclusive = small, poorly fitted or top-dose-only effect, or another doubt; inactive = no such curve, though single readings can be large or run the other way. No potency is given beside an inconclusive call; the fits are too rough.

What follows are compounds tested against Aldehyde dehydrogenase 1A1 (Homo sapiens) (UniProt P00352) (assay: qHTS Assay for Inhibitors of Aldehyde Dehydrogenase 1 (ALDH1A1)). Details: Purified ALDH1A1, NADH fluorescence, propionaldehyde substrate; series mostly up to 75.3 µM.
UniProt P00352, sequence (P00352 whole entry, looked up): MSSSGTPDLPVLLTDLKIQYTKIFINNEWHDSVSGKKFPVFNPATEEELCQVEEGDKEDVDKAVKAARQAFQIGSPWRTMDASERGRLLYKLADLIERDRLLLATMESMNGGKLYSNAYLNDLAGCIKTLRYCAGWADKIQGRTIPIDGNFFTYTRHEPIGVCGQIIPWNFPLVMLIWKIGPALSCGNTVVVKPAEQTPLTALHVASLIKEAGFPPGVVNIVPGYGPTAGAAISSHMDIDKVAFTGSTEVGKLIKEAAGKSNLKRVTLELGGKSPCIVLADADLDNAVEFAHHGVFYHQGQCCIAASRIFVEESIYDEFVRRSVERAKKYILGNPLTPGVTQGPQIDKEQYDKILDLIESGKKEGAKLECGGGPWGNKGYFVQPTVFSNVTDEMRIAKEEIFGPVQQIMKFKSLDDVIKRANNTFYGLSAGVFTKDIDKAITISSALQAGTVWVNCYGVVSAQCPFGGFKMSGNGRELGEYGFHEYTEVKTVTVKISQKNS
Potency is the fitted concentration of half-maximal effect; tags give direction and shape of the fitted curve.
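Throughout, for activity, negative = inhibition: plate controls were no enzyme wells and a reference inhibitor.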

Row | SMILES | Potency | activity, negative = inhibition
1 | Cc1ccc(NCCC(=O)c2cccc([N+](=O)[O-])c2)c(C)c1 | active: 0.126 µM | 
2 | C[C@H](NC(=O)/C(C#N)=C/c1ccc(O)c(O)c1)c1ccccc1 | inconclusive [inhibitor, single point] | 
3 | FC(F)(F)c1cc(-c2ccco2)nc(NCc2ccc(Cl)cc2)n1 | inconclusive [inhibitor, single point] | 
4 | O=C(O)C1C2CCCCC2=C2CCCCC2C1C(=O)c1ccccc1 (configuration not stated) | inactive | 
5 | CCCOc1ccc(C2C(C(=O)c3ccc(C)o3)=C(O)C(=O)N2Cc2cccnc2)cc1 (configuration not stated) | inconclusive [inhibitor, single point] | 
6 | CN1CCN(CCNC(=O)c2cc3c(=O)n(C)c4ccccc4c3n2C)CC1 | inconclusive [inhibitor, partial curve] | 
7 | O=c1[nH]nc(CNc2ccc(C(F)(F)F)cc2)c2ccccc12 | inactive | 
8 | Cc1nnc(SCC(=O)NNC(=O)c2ccco2)n1-c1cccc(Cl)c1 | inactive | 
9 | COC(=O)Cn1c(=NC(=O)c2ccc(Cl)s2)sc2cc(F)ccc21 | inconclusive [inhibitor, partial curve] | 
10 | O=C(CSc1nnc(-c2cccs2)n1-c1ccccc1)N1CCCC1 | inconclusive [inhibitor, single point] | 
11 | COc1ccccc1NC(=O)c1cc(Sc2nncn2C)nc2ccccc12 | inconclusive [inhibitor, partial curve] | 
12 | Cc1nc2nc(Cc3ccccc3)nn2c(C)c1Cl | active: 14.1 µM | 
13 | C=CCn1c(SCC(N)=O)nnc1-c1cc2c(s1)CCC(CC)C2 (configuration not stated) | inconclusive [inhibitor, single point] | 
14 | Nc1ccc2nc(-c3ccc(N)c(Cl)c3)[nH]c2c1 | inconclusive [inhibitor, partial curve] | 
15 | CCOC(=O)N1CCN(Cc2nc3c(c(=O)n(C)c(=O)n3C)n2Cc2cc(C)ccc2C)CC1 | active: 0.891 µM | 
16 | CCN(CC)C(=S)Nc1ccc([N+](=O)[O-])cc1 | inconclusive [inhibitor, single point] | 
17 | COc1ccc(C(=O)C2CCCN(Cc3cnc(N4CCCC4)s3)C2)cc1OC (configuration not stated) | inconclusive [inhibitor, single point] | 
18 | CCCCC(NS(=O)(=O)c1ccc(OC)cc1)C(=O)O (configuration not stated) | inconclusive [inhibitor, single point] | 
19 | CCc1nc2ccccc2n1CC(C)C(=O)O (configuration not stated) | inactive | 
20 | COc1ccccc1C(=O)COC(=O)c1ccccc1O | inconclusive [inhibitor, single point] | 
21 | CC(C)Oc1cccc(C(=O)Nc2ccccc2N2CCOCC2)c1 | inconclusive [inhibitor, single point] | 
22 | NS(=O)(=O)c1cccc(NC(=O)COC(=O)Cc2ccc(S(=O)(=O)N3CCCCC3)s2)c1 | inactive | 
23 | CC(O)CCc1nc2ccc(C(=O)O)cc2[nH]1 (configuration not stated) | inconclusive [inhibitor, single point] | 
24 | CCOc1ccc2nc(NC3=NC(c4ccc(OC)cc4)CC(=O)N3)nc(C)c2c1 (configuration not stated) | inconclusive [inhibitor, full curve] | 

Row | SMILES | Potency | activity, negative = inhibition
25 | COc1cccc(CN2CCN(c3nc4nonc4nc3NC3CC3)CC2)c1 | inactive | 
26 | COc1ccc(-n2c(SCC(N)=O)nc3sc4c(c3c2=O)CCN(C)C4)cc1 | inconclusive [inhibitor, full curve] | 
27 | CCOC(=O)CSC1=NC(=O)/C(=C/c2ccc(OC)cc2)S1 | inconclusive [inhibitor, single point] | 
28 | Cc1nnc(NC(=O)c2ccc(S(=O)(=O)N3CCCCCC3)cc2)o1 | inconclusive [inhibitor, single point] | 
29 | COc1ccc(CN(C)CC(=O)Nc2ccccc2-c2ccccc2)c(OC)c1 | active: 2.82 µM | 
30 | O=C(O)c1ccc(/C=N\N=C2c3ccccc3-c3ccccc32)cc1 |  | inactive: -3.19% [at 13.5 µM]
31 | O=C(OCc1cnc(Cl)s1)c1cccs1 | inactive | 
32 | Cc1cc2nnc(SC3CCOC3=O)n2c2ccccc12 (configuration not stated) | inconclusive [inhibitor, single point] | 
33 | Cc1cccnc1NC1(C(F)(F)F)N=C2SCCN2C1=O (configuration not stated) | inactive | 
34 | COc1cccc(C(=O)COc2ccc3c(C)c(Cc4ccccc4)c(=O)oc3c2)c1 | active: 0.631 µM | 
35 | CCOC(=O)CSc1nc2cc(C)cc(C)c2cc1C#N | inactive | 
36 | CC(=O)NS(=O)(=O)c1ccc(NC(=O)c2cc(-c3cccs3)nc3ccccc23)cc1 | inconclusive [inhibitor, single point] | 
37 | O=C(O)CSCc1c(F)cccc1Cl | inactive | 
38 | COc1cc(C(=O)N/N=C(\C)c2ccc3c(c2)OCO3)cc(OC)c1OC | inconclusive [inhibitor, single point] | 
39 | COCCNc1ncncc1-c1ccccc1OC | inconclusive [inhibitor, single point] | 
40 | N#CCSc1nc2ccc(N3CCOCC3)cc2c(=O)n1CCc1ccccc1 | inconclusive [inhibitor, single point] | 
41 | CC(C)(C)c1ccc(C(=O)NNC(=O)C2CCCCC2)cc1 | inconclusive [inhibitor, single point] | 
42 | CC(C)C(=O)N1CCN(c2c(Cl)cccc2[N+](=O)[O-])CC1 | inconclusive [inhibitor, single point] | 
43 | COc1ccc(Cn2nnnc2C(c2ccc(N(C)C)cc2)N2CCC(C(N)=O)CC2)cc1 (configuration not stated) | inconclusive [inhibitor, single point] | 
44 | O=c1cc(-c2ccco2)nc(-c2cccs2)o1 | active: 14.1 µM | 
45 | O=S(=O)(Nc1nc2ccccc2nc1Cl)c1ccc(Cl)cc1 | inconclusive [inhibitor, single point] | 
46 | NCCOc1ccc(C23CC4CC(CC(C4)C2)C3)cc1 | active: 22.4 µM | 
47 | CCOC(=O)CSC(=S)NC(=O)c1ccc(OC)cc1 | inconclusive [inhibitor, single point] | 
